T1: human C4b (human, UniProt P0C0L5 20-1744)
T1 chain 1: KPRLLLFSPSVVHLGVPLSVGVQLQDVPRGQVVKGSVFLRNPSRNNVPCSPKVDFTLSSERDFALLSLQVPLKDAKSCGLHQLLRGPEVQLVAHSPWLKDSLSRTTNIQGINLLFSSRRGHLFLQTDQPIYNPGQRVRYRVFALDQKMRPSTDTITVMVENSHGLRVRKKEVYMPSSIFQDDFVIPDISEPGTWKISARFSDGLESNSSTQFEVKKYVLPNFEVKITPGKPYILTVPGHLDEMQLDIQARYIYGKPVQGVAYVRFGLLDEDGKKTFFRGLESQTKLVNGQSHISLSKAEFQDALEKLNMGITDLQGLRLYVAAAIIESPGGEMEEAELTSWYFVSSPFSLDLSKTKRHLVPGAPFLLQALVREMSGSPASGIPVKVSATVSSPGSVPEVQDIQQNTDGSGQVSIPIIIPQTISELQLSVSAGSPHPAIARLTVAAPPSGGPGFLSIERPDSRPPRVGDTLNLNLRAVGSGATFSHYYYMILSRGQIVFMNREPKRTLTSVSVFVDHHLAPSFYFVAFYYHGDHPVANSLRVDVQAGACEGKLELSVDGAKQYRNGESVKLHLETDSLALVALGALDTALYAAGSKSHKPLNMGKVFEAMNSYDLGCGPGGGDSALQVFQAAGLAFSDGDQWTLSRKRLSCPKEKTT
T1 chain 2: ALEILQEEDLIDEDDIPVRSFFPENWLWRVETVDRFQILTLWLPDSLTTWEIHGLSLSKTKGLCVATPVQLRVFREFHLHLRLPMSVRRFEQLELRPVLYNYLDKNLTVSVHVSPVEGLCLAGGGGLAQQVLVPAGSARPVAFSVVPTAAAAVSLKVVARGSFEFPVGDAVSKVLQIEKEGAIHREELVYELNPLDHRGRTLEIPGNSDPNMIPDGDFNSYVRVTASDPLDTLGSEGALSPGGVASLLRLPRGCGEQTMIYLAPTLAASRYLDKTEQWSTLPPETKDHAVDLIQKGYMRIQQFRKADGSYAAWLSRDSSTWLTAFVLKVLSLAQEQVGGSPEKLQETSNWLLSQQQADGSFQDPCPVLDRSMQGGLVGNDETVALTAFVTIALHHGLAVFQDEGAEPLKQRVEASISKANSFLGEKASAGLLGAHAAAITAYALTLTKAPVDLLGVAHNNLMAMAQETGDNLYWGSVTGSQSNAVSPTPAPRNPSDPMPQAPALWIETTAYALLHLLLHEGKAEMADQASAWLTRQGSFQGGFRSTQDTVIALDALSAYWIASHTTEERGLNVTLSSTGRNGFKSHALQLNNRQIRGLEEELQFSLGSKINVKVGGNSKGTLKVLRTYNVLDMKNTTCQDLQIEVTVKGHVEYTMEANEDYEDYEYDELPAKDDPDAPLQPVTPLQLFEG
T1 chain 3: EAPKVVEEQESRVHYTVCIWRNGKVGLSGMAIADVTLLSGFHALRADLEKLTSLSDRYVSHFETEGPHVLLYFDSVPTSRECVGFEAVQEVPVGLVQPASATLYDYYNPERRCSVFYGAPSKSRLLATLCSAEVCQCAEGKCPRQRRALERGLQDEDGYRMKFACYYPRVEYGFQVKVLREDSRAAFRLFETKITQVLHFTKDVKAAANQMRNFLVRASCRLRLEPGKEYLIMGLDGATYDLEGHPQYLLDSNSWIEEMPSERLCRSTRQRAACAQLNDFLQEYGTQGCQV

B1: Const. No. 2: HSA-GGSSGG-hCFI; F559H (enzyme)
chain: [not shown - about 600 residues]GGSSGGKVTYTSQEDLVEKKCLAKKYTHLSCDKVFCQPWQRCIEGTCVCKLPYQCPKNGTAVCATNRRSFPTYCQQKSLECLHPGTKFLNNGTCTAEGKFSVSLKHGNTDSEGIVEVKLVDQDKTMFICKSSWSMREANVACLDLGFQQGADTQRRFKLSDLSINSTECLHVHCRGLETSLAECTFTKRRTMGYQDFADVVCYTQKADSPMDDFFQCVNGKYISQMKACDGINDCGDQSDELCCKACQGKGFHCKSGVCIPSQYQCNGEVDCITGEDEVGCAGFASVTQEETEILTADMDAERRRIKSLLPKLSCGVKNRMHIRRKRIVGGKRAQLGDLPWQVAIKDASGITCGGIYIGGCWILTAAHCLRASKTHRYQIWTTVVDWIHPDLKRIVIEYVDRIIFHENYNAGTYQNDIALIEMKKDGNKKDCELPRSIPACVPWSPYLFQPNDTCIVSGWGREKDNERVFSLQWGEVKLISNCSKFYGNRFYEKEMECAGTYDGSIDACKGDSGGPLVCMDANNVTYVWGVVSWGENCGKPEFPGVYTKVANYFDWISYHVGRPHISQYNV
B2: Const. No. 4: HSA-GGSSGG-hCFI; L307H (enzyme)
chain: [not shown - about 600 residues]GGSSGGKVTYTSQEDLVEKKCLAKKYTHLSCDKVFCQPWQRCIEGTCVCKLPYQCPKNGTAVCATNRRSFPTYCQQKSLECLHPGTKFLNNGTCTAEGKFSVSLKHGNTDSEGIVEVKLVDQDKTMFICKSSWSMREANVACLDLGFQQGADTQRRFKLSDLSINSTECLHVHCRGLETSLAECTFTKRRTMGYQDFADVVCYTQKADSPMDDFFQCVNGKYISQMKACDGINDCGDQSDELCCKACQGKGFHCKSGVCIPSQYQCNGEVDCITGEDEVGCAGFASVTQEETEILTADMDAERRRIKSLLPKHSCGVKNRMHIRRKRIVGGKRAQLGDLPWQVAIKDASGITCGGIYIGGCWILTAAHCLRASKTHRYQIWTTVVDWIHPDLKRIVIEYVDRIIFHENYNAGTYQNDIALIEMKKDGNKKDCELPRSIPACVPWSPYLFQPNDTCIVSGWGREKDNERVFSLQWGEVKLISNCSKFYGNRFYEKEMECAGTYDGSIDACKGDSGGPLVCMDANNVTYVWGVVSWGENCGKPEFPGVYTKVANYFDWISYHVGRPFISQYNV
B3: Const. No. 35: HSA-GGSSGG-hCFI; R371E (enzyme)
chain: [not shown - about 600 residues]GGSSGGKVTYTSQEDLVEKKCLAKKYTHLSCDKVFCQPWQRCIEGTCVCKLPYQCPKNGTAVCATNRRSFPTYCQQKSLECLHPGTKFLNNGTCTAEGKFSVSLKHGNTDSEGIVEVKLVDQDKTMFICKSSWSMREANVACLDLGFQQGADTQRRFKLSDLSINSTECLHVHCRGLETSLAECTFTKRRTMGYQDFADVVCYTQKADSPMDDFFQCVNGKYISQMKACDGINDCGDQSDELCCKACQGKGFHCKSGVCIPSQYQCNGEVDCITGEDEVGCAGFASVTQEETEILTADMDAERRRIKSLLPKLSCGVKNRMHIRRKRIVGGKRAQLGDLPWQVAIKDASGITCGGIYIGGCWILTAAHCLRASKTHEYQIWTTVVDWIHPDLKRIVIEYVDRIIFHENYNAGTYQNDIALIEMKKDGNKKDCELPRSIPACVPWSPYLFQPNDTCIVSGWGREKDNERVFSLQWGEVKLISNCSKFYGNRFYEKEMECAGTYDGSIDACKGDSGGPLVCMDANNVTYVWGVVSWGENCGKPEFPGVYTKVANYFDWISYHVGRPFISQYNV
B4: Const. No. 28: HSA-GGSSGG-hCFI; E401A (enzyme)
chain: [not shown - about 600 residues]GGSSGGKVTYTSQEDLVEKKCLAKKYTHLSCDKVFCQPWQRCIEGTCVCKLPYQCPKNGTAVCATNRRSFPTYCQQKSLECLHPGTKFLNNGTCTAEGKFSVSLKHGNTDSEGIVEVKLVDQDKTMFICKSSWSMREANVACLDLGFQQGADTQRRFKLSDLSINSTECLHVHCRGLETSLAECTFTKRRTMGYQDFADVVCYTQKADSPMDDFFQCVNGKYISQMKACDGINDCGDQSDELCCKACQGKGFHCKSGVCIPSQYQCNGEVDCITGEDEVGCAGFASVTQEETEILTADMDAERRRIKSLLPKLSCGVKNRMHIRRKRIVGGKRAQLGDLPWQVAIKDASGITCGGIYIGGCWILTAAHCLRASKTHRYQIWTTVVDWIHPDLKRIVIEYVDRIIFHANYNAGTYQNDIALIEMKKDGNKKDCELPRSIPACVPWSPYLFQPNDTCIVSGWGREKDNERVFSLQWGEVKLISNCSKFYGNRFYEKEMECAGTYDGSIDACKGDSGGPLVCMDANNVTYVWGVVSWGENCGKPEFPGVYTKVANYFDWISYHVGRPFISQYNV
B5: Const. No. 42: HSA-GGSSGG-hCFI; L73D (enzyme)
chain: [not shown - about 600 residues]GGSSGGKVTYTSQEDLVEKKCLAKKYTHLSCDKVFCQPWQRCIEGTCVCKLPYQCPKNGTAVCATNRRSFPTYCQQKSDECLHPGTKFLNNGTCTAEGKFSVSLKHGNTDSEGIVEVKLVDQDKTMFICKSSWSMREANVACLDLGFQQGADTQRRFKLSDLSINSTECLHVHCRGLETSLAECTFTKRRTMGYQDFADVVCYTQKADSPMDDFFQCVNGKYISQMKACDGINDCGDQSDELCCKACQGKGFHCKSGVCIPSQYQCNGEVDCITGEDEVGCAGFASVTQEETEILTADMDAERRRIKSLLPKLSCGVKNRMHIRRKRIVGGKRAQLGDLPWQVAIKDASGITCGGIYIGGCWILTAAHCLRASKTHRYQIWTTVVDWIHPDLKRIVIEYVDRIIFHENYNAGTYQNDIALIEMKKDGNKKDCELPRSIPACVPWSPYLFQPNDTCIVSGWGREKDNERVFSLQWGEVKLISNCSKFYGNRFYEKEMECAGTYDGSIDACKGDSGGPLVCMDANNVTYVWGVVSWGENCGKPEFPGVYTKVANYFDWISYHVGRPFISQYNV
B6: Const. No. 3: HSA-GGSSGG-hCFI; L307F (enzyme)
chain: [not shown - about 600 residues]GGSSGGKVTYTSQEDLVEKKCLAKKYTHLSCDKVFCQPWQRCIEGTCVCKLPYQCPKNGTAVCATNRRSFPTYCQQKSLECLHPGTKFLNNGTCTAEGKFSVSLKHGNTDSEGIVEVKLVDQDKTMFICKSSWSMREANVACLDLGFQQGADTQRRFKLSDLSINSTECLHVHCRGLETSLAECTFTKRRTMGYQDFADVVCYTQKADSPMDDFFQCVNGKYISQMKACDGINDCGDQSDELCCKACQGKGFHCKSGVCIPSQYQCNGEVDCITGEDEVGCAGFASVTQEETEILTADMDAERRRIKSLLPKFSCGVKNRMHIRRKRIVGGKRAQLGDLPWQVAIKDASGITCGGIYIGGCWILTAAHCLRASKTHRYQIWTTVVDWIHPDLKRIVIEYVDRIIFHENYNAGTYQNDIALIEMKKDGNKKDCELPRSIPACVPWSPYLFQPNDTCIVSGWGREKDNERVFSLQWGEVKLISNCSKFYGNRFYEKEMECAGTYDGSIDACKGDSGGPLVCMDANNVTYVWGVVSWGENCGKPEFPGVYTKVANYFDWISYHVGRPFISQYNV

Target: T1, human C4b
Assay: cell-based or functional assay

| Binder | C4c EC50 [nM] |
| --- | --- |
| B1 | 244 |
| B2 | 186 |
| B3 | 745 |
| B4 | 90.4 |
| B5 | 379 |
| B6 | 103 |
